# The source gives no read counts; variants with many changes may rest on few reads.
# B1: OR4K15 (parent)
# chain: GUUAACGGUCAUAGGCCAUGGAAACUAGGAGCACCAUUUCGCUGCCAGUGAAGAAAUGAACAAAGAAAAUCUGGGCCAGGCAGGCAUCAAAAGAAAUAGUCUUGCGCUCAACCAGAAAGUCUGUAAUCAUUUUAAGGGUA
# Variants of: B1
# Assay: self-cleavage, relative activity (ratio to wild type); higher = more cleavage; in vitro, sequencing; the parent is a self-cleaving ribozyme
row,Variant,self-cleavage
1,GUUAACGGCCAUAGGCCAUGGAAACUAGGAGCACCAUUUCGCUGCCAGUGGGGAAAUGAACAAAGAAAAUCUGGGCCAGGCAGGCAUCAAAAGAAAUAGUCUUGCGCCCAACCAGAAAGUCUGUAAUCACUUUAAGGGUA [U9C A51G A52G U108C U130C],0.25
2,GUUAACGGUCAUAGGCCAUGGUAACUAGGAGCACCAUUUCGCUGCCAGUGUAGAAAUGAACAAAGAAAAUCUGGGCCAGGCAGGCAUCAAAAGAAGUAGUCUUGCGCUCGACCAGAAAGUCUGUAAUCAUUUUAGGGGUA [A22U A51U A96G A110G A135G],0.17
3,GCUAACGGUCAUAGGCCAUGGAAACUAGGAGCACCAUUUCGCUGCCAGCGAAGAAAUGAACAAAGAAAAUCUGGGCCAGGCAGGCAUCAAAAGAAAUAGUCUUGCGCGCAACCAGAAAGUCUGUAAUCAUUUUAAGGGUA [U2C U49C U108G],0.05
4,GUUAUCGGUCAUAGGCCAUGGAAACUAGGAGCACCAUUUCGCUGCCAGUGAAGAAAUGGACAAAGAAAAUCUGGGCCAGGCAGGCAUCUAAAGAAAUGGUCAAGAGCUCAACCAGAAAGUCUGUAAUCAUUUUGAGGGUA [A5U A59G A89U A98G U102A U103A C105A A134G],0.01
5,GUUAACGGUCAUAGGCCGUGGAAACUAGGAGCACCAUUUCGCUGCCAGCGAGGAGAUGAACAAAGAAAAUCUGGGCCAGGCAGGCAUCAAAAGAAAUAGUCUUGCGCUCAACCAGAAAGUCUGUAAUCAUUUUAAGGGUA [A18G U49C A52G A55G],0.66
6,GUUAACGGUCAUAGGCCAUGGAAACUAGGAGCACCAUUUCGCUGCCAGUGAAGAAGUGAACAAAGAAAAUCUGGGCCAGGCAGGCAUCAAAAGAAAUAGUCUUGCGCUCAACCAGAAAGCCCGUAAUCACUUUAAGGGUA [A56G U120C U122C U130C],1.06
7,GUUAACGGUCAUAGGCCAUGGAAACUAGGGGCACCAUUUCGCUGCCAGUGAAGAAAUGAACAAAGAAAAUCUGGGCCAGGCUGGCAUCAAGAGAAAUAGUCUUGCGCUCAACCAGAAAGUCUGUAAUCAUUUUAAGGGUA [A30G A82U A91G],0.23
8,GUUAACGGUCAUAGGCCAUGGAAACUAGGAGCACCAUUUCGCUGCCAGUGAAGAAAUGAACAAUGAAAAUCUGGGCCAGGCAGGCAUCAAAGGAAAUAGUCUUGCGCUCAACCAGGAAGUCUGUAAUCAUUUUAAGGGUA [A64U A92G A116G],1.31
9,GUUAACGGUCAUAGGCCAUGGAAACUAGGAGCACCAUUUCGCAGCCAGUGAAGAAAUGAACAAAGAGAAUCUGGGCCAGGCAGGCAUCAAAAGAAAUAGUCUUGCGCUCAACCAGAAAGUCUGUAAUCAUUCUAAGGGUA [U43A A67G U132C],1
10,GUUAACGGUCAUAGGCCAUGGAAACUGGGAGCACCAUUUCGCUGCCAGUGAUGAAAUGAACAAAGAAAAUCUGGGCCUGGCAGGCAUCAAAAGAAAUAGUCUUGCGCUCAACCAGAAAGUCUGUAAUCAUUUUAAGGGUA [A27G A52U A78U],0.55
11,GUUAACGGCCGUAGGCCAUGGAAACUAGGAGCACCAUUUCGCUGCCAGAGAAGAAAUGAACAAAGAAAGUCUGGGCCAGGCAGGCAUCAAAAGAAAUAGUCCUGCGCUCAACCAGAAAGUCUGUAAUCAUUUUAAGGGUA [U9C A11G U49A A69G U102C],1.22
12,GUUAGCGGUCAUAGGCCAUGGAAACUAGGAGCACCAUUUCGCUGCCAGUGAAGAAAUGAACAAAGAAAAUCAGGGCCAGGCAGGCAUCAAAAGAAAUAGUCUUGCGCUCAACCAGAAAGUCUGUUAUCAUUUUAAGGGUA [A5G U72A A125U],0.53
13,GUCAACGGCCAUAGGCCAUGGAAACUAGGAGCACCAUUUCGCUGCCAGUGAAGAGAUGAACAAAGAAAAUCUGGGCCAGGCAGGCAUCAAAAGAAAUAGUCUUGCGCUCAACCAGAAAGUCUGUAAUCAUUUUAAGGGUA [U3C U9C A55G],1.31
14,GCUAACGGUCACAGGCCAUGGAAACUAGGAGCACCAUUUCGCUGCCAGUGAGUAAAUGAACAAAGAAAAUCUGGGCCAGGCGGGCAUCAAAAGAAAUAGUCUUGCGCUCAACCAGAAAGUCUGUAAUCAUUUUAAGGGUA [U2C U12C A52G G53U A82G],1.37
15,GCUAACGGUCAUAGGCCAUGGAAACUAGGAGCGCCAUUUCGCUGCCAGUGAAGAAAUGAACAAAGAAAAACUGGGCCAGGCAGGCAUCAAAAGAAAUAGUCUUGCGCUCAACCAGAAAGUCUGUAAUCAUUUUAAGGGUA [U2C A33G U70A],0.33
16,GUUAACGGUCAUAGGCCAUGGAAACUAGGAGCACCAUUUCGCUGCCAGUGAAGAAAUGAACAAAGAAAAUCUGGGCCAGGCAGGCGUCAAAGGAAAUAGUCUUGCGCUCAACCAGGAAGUCUGUAAUCAUUUUAAGGGUA [A86G A92G A116G],0.6
17,GUUAACGGUCAUAGGCCAUGGAAACUAGGAGCACCAUUUCGCUGCCAGUGAAGAAAUGAACAAAGAAAAACUGGGCCAGGCAGGCACCAAAAGAAAUAGUCUUGCGCUCGACCAGAAAGUCUGUAAUCAUUUUAAGGGUA [U70A U87C A110G],0.09
18,GUUAACGGUCAUAGGCCAUGGAAACUAGGAGCACCAUUUCGCUGCCAGUGAAGAACUGGACAAAGAAGAUCUGGGCCAGGCAGGCAUCAAAAGAAAUAGUCUUGCGCUCAACCAGAAAGUCUGUAAUCAUUUUAAGGGUA [A56C A59G A68G],0.42
19,GUUAACGGUCAUAGGCCAUGGAAACUAGGGGCACCAUUUCGCUGCCAGUGAAGAAAUGAACAAAGAAAAUCUGGGCCAGGCAGGCGUCGAAAGAAAUAGUCUUGCGCACAACCAGAAAGUCUGUAGUCAUUCUAAUGGUA [A30G A86G A89G U108A A126G U132C G136U],0.01
20,GUUAACGGUCAUAGGCCAUGGAAACUAGGAGCACCAUUUCGCUGCCAGUGAAGAAAUGAACAAAGAAAAUCUGGGACAGGCAGGCAUCAAAAGAAAUAGUCCUGCGCCCAACCAGAAAGUCUGUAAUCAUUUUAAGGGUA [C76A U102C U108C],0
21,GUUAACGGUCAUAGGCCAUGGAAACUAGGAGCACCAUUUCGCCGCCAGUGAAGAAAUGAACAAAGAAAAUCUGGGCCAGGCAGGCAUCAAAAGAAAUAGCCUUGCGCUCAACCAGAAAGUCUGUAAUCAUUCUAAGGGUA [U43C U100C U132C],2.29
